# Experimental data from the supplement of paper PMC4604168 (melanoma cell lines).
# The list shows a part of the results. Repeats are few or missing, and single values can be far off.
# Assays:
# Assay in all cases: cell count relative to DMSO control; melanoma cells; higher = more viable cells
# Conditions in all cases: library dose: low library concentration; 72 h
# [1] = test system: MZ2-MEL
# [2] = test system: MeWo
# [3] = test system: RPMI7951
# [4] = test system: RVH-421
# [5] = test system: SkMel28
# [6] = test system: SkMel2
# [7] = test system: SkMel30
# [8] = test system: SkMel5
# [9] = test system: UACC257
# [10] = test system: UACC62
# 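Also: cell number obtained by counting DAPI-stained nuclei in high-throughput microscope images with image analysis software, screen run in 1,536-well plates.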
SMILES,cell count [1],cell count [2],cell count [3],cell count [4],cell count [5],cell count [6],cell count [7],cell count [8],cell count [9],cell count [10]
"N#CC[C@H](C1CCCC1)n1cc(-c2ncnc3[nH]ccc23)cn1 [ruxolitinib] + O=C(Nc1ccccc1)c1cc([N+](=O)[O-])ccc1Cl [GW9662] (first compound 1 µM, partner dose 2 µM)",95.7%,95.3%,113%,86.2%,106%,98.5%,87%,88.2%,92.2%,94.3%
"Cc1cc(Nc2cc(N3CCN(C)CC3)nc(Sc3ccc(NC(=O)C4CC4)cc3)n2)n[nH]1 [Tozasertib] + C[C@@H](Oc1cc(-c2cnn(C3CCNCC3)c2)cnc1N)c1c(Cl)ccc(F)c1Cl [Crizotinib] (first compound 0.006 µM, partner dose 0.2 µM)",104%,92%,100%,83.6%,102%,96.6%,89.2%,,,97%
"N#CC[C@H](C1CCCC1)n1cc(-c2ncnc3[nH]ccc23)cn1 [ruxolitinib] + Cc1ccc(NC(=O)c2cccc(N(C)C)c2)cc1NC(=O)c1ccc(O)cc1 [ZM336372] (first compound 1 µM, partner dose 2 µM)",90.4%,93.1%,98.2%,96.3%,111%,119%,103%,115%,78.8%,92.7%
"N#CC[C@H](C1CCCC1)n1cc(-c2ncnc3[nH]ccc23)cn1 [ruxolitinib] + Cc1cc([N+](=O)[O-])ccc1NS(=O)(=O)c1cc(Cl)ccc1Cl [FH535] (first compound 1 µM, partner dose 1 µM)",101%,97.9%,106%,210%,109%,109%,113%,94.5%,120%,106%
"Cc1cc(Nc2cc(N3CCN(C)CC3)nc(Sc3ccc(NC(=O)C4CC4)cc3)n2)n[nH]1 [Tozasertib] + Oc1nc(-c2ccc(C(F)(F)F)cc2)nc2c1CSCC2 [XAV939] (first compound 0.006 µM, partner dose 2 µM)",98.7%,93%,88.9%,99.6%,89.7%,102%,98.9%,76.2%,70.5%,83.4%
"CC[C@]1(O)C[C@H]2CN(CCc3c([nH]c4ccccc34)[C@@](C(=O)OC)(c3cc4c(cc3OC)N(C=O)[C@H]3[C@@](O)(C(=O)OC)[C@H](OC(C)=O)[C@]5(CC)C=CCN6CC[C@]43[C@@H]65)C2)C1 [vincristine] + COc1ccc(COc2ccc(Cc3cnc(N)nc3N)cc2OC)cc1 [GW2580] (first compound 0.0001 µM, partner dose 1 µM)",97.4%,106%,113%,90.1%,97.7%,108%,98.2%,101%,92.7%,107%
"N#CC[C@H](C1CCCC1)n1cc(-c2ncnc3[nH]ccc23)cn1 [ruxolitinib] + CC(C)(C)c1cnc(CSc2cnc(NC(=O)C3CCNCC3)s2)o1 [SNS-032] (first compound 1 µM, partner dose 0.01 µM)",106%,105%,97.3%,84.4%,103%,124%,142%,111%,88.3%,108%
"N#CC[C@H](C1CCCC1)n1cc(-c2ncnc3[nH]ccc23)cn1 [ruxolitinib] + O=C1NC(=O)/C(=C/c2ccc(-c3ccc(F)cc3O)o2)S1 [AS252424] (first compound 1 µM, partner dose 1 µM)",99.7%,93.6%,94.7%,88%,106%,93.1%,125%,89.9%,88.1%,112%
"Cc1cc(Nc2cc(N3CCN(C)CC3)nc(Sc3ccc(NC(=O)C4CC4)cc3)n2)n[nH]1 [Tozasertib] + Cn1cc(/C=C2\C(=O)Nc3cccnc32)c2ccccc21 [GW441756] (first compound 0.006 µM, partner dose 0.4 µM)",93%,83.7%,99.7%,69.1%,95.1%,105%,98.7%,83.5%,87.3%,104%
"CC[C@]1(O)C[C@H]2CN(CCc3c([nH]c4ccccc34)[C@@](C(=O)OC)(c3cc4c(cc3OC)N(C=O)[C@H]3[C@@](O)(C(=O)OC)[C@H](OC(C)=O)[C@]5(CC)C=CCN6CC[C@]43[C@@H]65)C2)C1 [vincristine] + O=C(O)C(=O)Nc1sc2c(c1C(=O)O)CCNC2 [TCS401] (first compound 0.0001 µM, partner dose 1.66667 µM)",78.7%,88.8%,55.5%,137%,74.4%,88%,53.5%,94.4%,65.3%,57.7%
"CC[C@]1(O)C[C@H]2CN(CCc3c([nH]c4ccccc34)[C@@](C(=O)OC)(c3cc4c(cc3OC)N(C=O)[C@H]3[C@@](O)(C(=O)OC)[C@H](OC(C)=O)[C@]5(CC)C=CCN6CC[C@]43[C@@H]65)C2)C1 [vincristine] + Cn1cncc1[C@@](N)(c1ccc(Cl)cc1)c1ccc2c(c1)c(-c1cccc(Cl)c1)cc(=O)n2C [tipifarnib] (first compound 0.0001 µM, partner dose 0.01 µM)",66.8%,80.1%,26.5%,79.2%,53.3%,86.2%,52.3%,73.9%,44.1%,52%
"CC[C@]1(O)C[C@H]2CN(CCc3c([nH]c4ccccc34)[C@@](C(=O)OC)(c3cc4c(cc3OC)N(C=O)[C@H]3[C@@](O)(C(=O)OC)[C@H](OC(C)=O)[C@]5(CC)C=CCN6CC[C@]43[C@@H]65)C2)C1 [vincristine] + O=C(Nc1cccc(Cl)c1)Nc1ncc(CCNc2ncnc3ccsc23)s1 [SNS314] (first compound 0.0001 µM, partner dose 0.0008 µM)",88.4%,81.8%,74%,93%,76.6%,102%,66.3%,82.2%,41.2%,65.5%
"Cc1cc(Nc2cc(N3CCN(C)CC3)nc(Sc3ccc(NC(=O)C4CC4)cc3)n2)n[nH]1 [Tozasertib] + C=C(c1ccc(C(=O)O)cc1)c1cc2c(cc1C)C(C)(C)CCC2(C)C [Bexarotene] (first compound 0.006 µM, partner dose 2 µM)",96.3%,91.2%,88%,78.8%,74.3%,84.4%,107%,,,78.1%
"Cc1cc(Nc2cc(N3CCN(C)CC3)nc(Sc3ccc(NC(=O)C4CC4)cc3)n2)n[nH]1 [Tozasertib] + O=C(O)C(=O)Nc1sc2c(c1C(=O)O)CCNC2 [TCS401] (first compound 0.006 µM, partner dose 1.66667 µM)",106%,95%,100%,87.4%,95.5%,97.3%,115%,103%,92.4%,66.9%
"Cc1cc(Nc2cc(N3CCN(C)CC3)nc(Sc3ccc(NC(=O)C4CC4)cc3)n2)n[nH]1 [Tozasertib] + CC(=O)c1c(C)c2cnc(Nc3ccc(N4CCNCC4)cn3)nc2n(C2CCCC2)c1=O [palbociclib] (first compound 0.006 µM, partner dose 0.04 µM)",87%,81.2%,87.3%,80.3%,67.2%,70.8%,65%,,,64.3%
"CC[C@]1(O)C[C@H]2CN(CCc3c([nH]c4ccccc34)[C@@](C(=O)OC)(c3cc4c(cc3OC)N(C=O)[C@H]3[C@@](O)(C(=O)OC)[C@H](OC(C)=O)[C@]5(CC)C=CCN6CC[C@]43[C@@H]65)C2)C1 [vincristine] + CCCS(=O)(=O)Nc1ccc(F)c(C(=O)c2c[nH]c3ncc(Cl)cc23)c1F [PLX4720] (first compound 0.0001 µM, partner dose 0.08 µM)",86.8%,71.9%,59.3%,79.8%,63.9%,87.3%,63.9%,,,50.7%
"CC[C@]1(O)C[C@H]2CN(CCc3c([nH]c4ccccc34)[C@@](C(=O)OC)(c3cc4c(cc3OC)N(C=O)[C@H]3[C@@](O)(C(=O)OC)[C@H](OC(C)=O)[C@]5(CC)C=CCN6CC[C@]43[C@@H]65)C2)C1 [vincristine] + COc1ccc(C2=N[C@@H](c3ccc(Cl)cc3)[C@@H](c3ccc(Cl)cc3)N2C(=O)N2CCNC(=O)C2)c(OC(C)C)c1 [Nutlin-3] (first compound 0.0001 µM, partner dose 0.1 µM)",101%,58.2%,53.4%,99.2%,68.4%,88.3%,44%,,,57.1%
"CC[C@]1(O)C[C@H]2CN(CCc3c([nH]c4ccccc34)[C@@](C(=O)OC)(c3cc4c(cc3OC)N(C=O)[C@H]3[C@@](O)(C(=O)OC)[C@H](OC(C)=O)[C@]5(CC)C=CCN6CC[C@]43[C@@H]65)C2)C1 [vincristine] + Cc1cn(-c2cc(NC(=O)c3ccc(C)c(Nc4nccc(-c5cccnc5)n4)c3)cc(C(F)(F)F)c2)cn1 [nilotinib] (first compound 0.0001 µM, partner dose 0.2 µM)",98.8%,71.4%,65.9%,63.8%,49.7%,80.9%,60.8%,,,52.5%
"Cc1cc(Nc2cc(N3CCN(C)CC3)nc(Sc3ccc(NC(=O)C4CC4)cc3)n2)n[nH]1 [Tozasertib] + Cn1nnc2c(C(N)=O)ncn2c1=O [temozolomide] (first compound 0.006 µM, partner dose 2 µM)",89.3%,88.9%,65.3%,103%,72.5%,86.9%,89.8%,,,71.5%
"Cc1cc(Nc2cc(N3CCN(C)CC3)nc(Sc3ccc(NC(=O)C4CC4)cc3)n2)n[nH]1 [Tozasertib] + Cc1cn(-c2cc(NC(=O)c3ccc(C)c(Nc4nccc(-c5cccnc5)n4)c3)cc(C(F)(F)F)c2)cn1 [nilotinib] (first compound 0.006 µM, partner dose 0.2 µM)",94.9%,89%,74%,92.6%,99.3%,97.9%,94.2%,,,91%
"N#CC[C@H](C1CCCC1)n1cc(-c2ncnc3[nH]ccc23)cn1 [ruxolitinib] + COc1ccc(Cl)c(Nc2nc3ccccc3nc2NS(=O)(=O)c2cccc(NC(=O)C(C)(C)N)c2)c1 [XL147] (first compound 1 µM, partner dose 0.8 µM)",112%,98.1%,105%,109%,125%,107%,101%,,,122%
